Measured values reported in article PMC5892938.
The list shows a part of the results. At the low end of the ranking the order means little.

Biological target: GST-SBP-SLBP (stem-loop binding protein) (UniProt Q14493)
Test: targeted RNA Bind-n-Seq;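 also: DESeq read counts versus GST-SBP nonspecific binding control pulldown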
Settings: RBNS binding buffer: 25 mM Tris pH 7.5, 150 mM KCl, 3 mM MgCl2, 0.1% Tween, 0.5 mg/mL BSA, 1 mM DTT; 27 nM protein, 750 pM RNA pool; temperature not stated; high values mean tight binding

Row | Sequence | binding signal (log2 fold change)
1 | GGUCACGUCUCAAUCAACUCUUCUUCCAGGGAAAACCCUGGCAAUCUCAACAGCUCGCAGUCAAG | -0.00149
2 | GGUCACGUCUCAAUCAACUCUUUUCCCAGGGAAACCCCUGGUUAUCUCAACAGCUCGCAGUCAAG | -0.0184
3 | GGUCACGUCUCAAUCAACUCCAUAGAGGGGGGGAAAACCCCUUUGCCCUCAUAAUCAACAGCUCGCAGUCAAG | -0.217
4 | GGUCACGUCUCAAUCAACUCUUUAGAGGGGGGGAAAACCCCUUUGCCCUCAACCUCAACAGCUCGCAGUCAAG | -0.0612
5 | GGUCACGUCUCAAUCAACUCUUCUCCCAGGGAAAUCCCUGGUAAACUCAACAGCUCGCAGUCAAG | 0.359
6 | GGUCACGUCUCAAUCAACUCUUCUCCAGGAGUUUUCUCCUGUUUUUUCAACAGCUCGCAGUCAAG | 0.0665
7 | GGUCACGUCUCAAUCAACUCUUCUCCAGGAGUUUUCUCCUGCUUAUUCAACAGCUCGCAGUCAAG | -0.0236
8 | GGUCACGUCUCAAUCAACUCUUUCUCAGGAGUUUUCUCCUGCAAUGUCAACAGCUCGCAGUCAAG | 0.0328
9 | GGUCACGUCUCAAUCAACUCUUUAGAGGGGGGGAAAACCCCUUUGCCCUCGAAUUCAACAGCUCGCAGUCAAG | 0.388
10 | GGUCACGUCUCAAUCAACUCUUUCCCCAGGGAAACCCCUGGCUAUGUCAACAGCUCGCAGUCAAG | -0.161
11 | GGUCACGUCUCAAUCAACUCUUCCCCAGGAGUUUACUCCUGCAUUCUCAACAGCUCGCAGUCAAG | 0.0679
12 | GGUCACGUCUCAAUCAACUCUUCGUCCAGGGAAACCCCUGGUAAUUUCAACAGCUCGCAGUCAAG | 0.0379
13 | GGUCACGUCUCAAUCAACUCACACGAGGGGGGGAAAACCCCUUUACCCUCAAUUUCAACAGCUCGCAGUCAAG | 0.119
14 | GGUCACGUCUCAAUCAACUCAGUCUCAGGAGUUUACUCCUGCUUUUUCAACAGCUCGCAGUCAAG | -0.105
15 | GGUCACGUCUCAAUCAACUCUACUUCCAGGGAAACCCCUGGUAAUCUCAACAGCUCGCAGUCAAG | -0.0145
16 | GGUCACGUCUCAAUCAACUCAUUUCCCAGGGAAACCCCUGGUUAUCUCAACAGCUCGCAGUCAAG | -0.00494
17 | GGUCACGUCUCAAUCAACUCAAUCCCCAGGGAAAUCCCUGGUUUUCUCAACAGCUCGCAGUCAAG | 0.0358
18 | GGUCACGUCUCAAUCAACUCAUCUUCCAGGGAAACCCCUGGCAUACUCAACAGCUCGCAGUCAAG | 0.113
19 | GGUCACGUCUCAAUCAACUCAACUUCAGGAGUUUCCUCCUGCAAACUCAACAGCUCGCAGUCAAG | 0.0453
20 | GGUCACGUCUCAAUCAACUCUAUUUCAGGAGUUUCCUCCUGCUAUUUCAACAGCUCGCAGUCAAG | 0.0697
21 | GGUCACGUCUCAAUCAACUCUCUAGAGGGGGGGAAAACCCCUUUGCCCUCAACAUCAACAGCUCGCAGUCAAG | 0.0563
22 | GGUCACGUCUCAAUCAACUCAUCGUCAGGAGUUUACUCCUGCUUUUUCAACAGCUCGCAGUCAAG | -0.387
23 | GGUCACGUCUCAAUCAACUCAAUCUCCAGGGAAACCCCUGGUUUACUCAACAGCUCGCAGUCAAG | -0.158
24 | GGUCACGUCUCAAUCAACUCUAUCCCCAGGGAAAUCCCUGGCUAUUUCAACAGCUCGCAGUCAAG | 0.114

Row | Sequence | binding signal (log2 fold change)
25 | GGUCACGUCUCAAUCAACUCAUUCCCCAGGGAAAUCCCUGGCAAUCUCAACAGCUCGCAGUCAAG | -0.0336
26 | GGUCACGUCUCAAUCAACUCUUUUUCCAGGGAAAGCCCUGGCAUAUUCAACAGCUCGCAGUCAAG | 0.18
27 | GGUCACGUCUCAAUCAACUCAACUUCAGGAGUUUUCUCCUGUUAUGUCAACAGCUCGCAGUCAAG | 0.0344
28 | GGUCACGUCUCAAUCAACUCCCACGAGGGGGGGAAAACCCCUUUACCCUCACCUUCAACAGCUCGCAGUCAAG | -0.0503
29 | GGUCACGUCUCAAUCAACUCUCAAGAGGGGGGGAAAACCCCUUUACCCUCAACCUCAACAGCUCGCAGUCAAG | -0.137
30 | GGUCACGUCUCAAUCAACUCUUUUUCAGGAGUUUACUCCUGUAUACUCAACAGCUCGCAGUCAAG | 0.0679
31 | GGUCACGUCUCAAUCAACUCUUUCCCAGGAGUUUACUCCUGCAAUCUCAACAGCUCGCAGUCAAG | 0.109
32 | GGUCACGUCUCAAUCAACUCAUUUCCCAGGGAAACCCCUGGCAUACUCAACAGCUCGCAGUCAAG | 0.161
33 | GGUCACGUCUCAAUCAACUCUACUUCCAGGGAAACCCCUGGCUUACUCAACAGCUCGCAGUCAAG | -0.125
34 | GGUCACGUCUCAAUCAACUCAUCUUCAGGAGUUUCCUCCUGUAUAUUCAACAGCUCGCAGUCAAG | 0.127
35 | GGUCACGUCUCAAUCAACUCUUCCCCAGGAGUUUUCUCCUGCAAUUUCAACAGCUCGCAGUCAAG | -0.038
36 | GGUCACGUCUCAAUCAACUCUACUUCCAGGGAAAGCCCUGGUUUUCUCAACAGCUCGCAGUCAAG | -0.183
37 | GGUCACGUCUCAAUCAACUCUUCUCCCAGGGAAAUCCCUGGUUAACUCAACAGCUCGCAGUCAAG | -0.152
38 | GGUCACGUCUCAAUCAACUCAAUUUCCAGGGAAAUCCCUGGCGUAUUCAACAGCUCGCAGUCAAG | 0.0665
39 | GGUCACGUCUCAAUCAACUCAACUUCAGGAGUUUCCUCCUGCAUACUCAACAGCUCGCAGUCAAG | 0.102
40 | GGUCACGUCUCAAUCAACUCUUACGAGGGGGGGAAAACCCCUUUGCCCUCACUUUCAACAGCUCGCAGUCAAG | -0.381
41 | GGUCACGUCUCAAUCAACUCAUCUCCCAGGGAAACCCCUGGCAUACUCAACAGCUCGCAGUCAAG | -0.0609
42 | GGUCACGUCUCAAUCAACUCAUUCUCAGGAGUUUGCUCCUGUAUUCUCAACAGCUCGCAGUCAAG | -0.137
43 | GGUCACGUCUCAAUCAACUCAUCUCCCAGGGAAACCCCUGGCAAUUUCAACAGCUCGCAGUCAAG | -0.302
44 | GGUCACGUCUCAAUCAACUCUUAAGAGGGGGGGAAAACCCCUUUACCCUCACUUUCAACAGCUCGCAGUCAAG | -0.0689
45 | GGUCACGUCUCAAUCAACUCUCUAGAGGGGGGGAAAACCCCUUUGCCCUCCGUAUCAACAGCUCGCAGUCAAG | -0.254
46 | GGUCACGUCUCAAUCAACUCAUCCUCCAGGGAAAUCCCUGGUAUACUCAACAGCUCGCAGUCAAG | 0.0231
47 | GGUCACGUCUCAAUCAACUCUUCCCCCAGGGAAACCCCUGGUAAACUCAACAGCUCGCAGUCAAG | -0.338
